Reference: the supplement of paper PMC4967469
A lower IC50 marks a more sensitive line; fits outside the tested doses are given as limits. AUC is the area under the same curve over the 256-fold range up to the top dose, as a fraction; it is 1 without any effect and falls as sensitivity rises. For part of these data: The top dose, if marked as inferred, was calculated from the reported fits.

How the values were obtained:
Assay in all cases: Viability of human cancer cell lines after 72 h of drug (GDSC screen)
BMX-IN-1 (QL-XII-61) = compound: C=CC(=O)Nc1cc(-n2c(=O)ccc3cnc4ccc(-c5ccc(NS(C)(=O)=O)cc5)cc4c32)ccc1C [BMX-IN-1 (QL-XII-61)]; settings: top dose 10 µM; top dose inferred
Procedure: (§1)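 Human cancer cell lines in 384-well plates, medium with 10% serum, drug for 72 h over a 256-fold dose range (nine 2-fold or five 4-fold steps up to the top dose). Adherent lines were fixed and stained with the nucleic acid dye Syto60, suspension lines read with resazurin; signal relative to control wells, capped at 0 and 100%. One two-parameter sigmoid per drug and line, fitted in a mixed model over all curves with the slope shared within a line.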

17-AAG = compound: C=CCNC1=C2C[C@@H](C)C[C@H](OC)[C@H](O)[C@@H](C)/C=C(\C)[C@H](OC(N)=O)[C@@H](OC)/C=C\C=C(/C)C(=O)NC(=CC1=O)C2=O [17-AAG]; settings: top dose 1 µM
Procedure: as §1

CCT018159 = compound: CCc1cc(-c2n[nH]c(C)c2-c2ccc3c(c2)OCCO3)c(O)cc1O [CCT018159]; settings: top dose 10 µM; top dose inferred
Procedure: as §1

BIX02189 = compound: CN(C)Cc1cccc(N=C(c2ccccc2)c2c(O)[nH]c3cc(C(=O)N(C)C)ccc23)c1 [BIX02189]; settings: top dose 20 µM; top dose inferred
Procedure: as §1

Dimethyloxalylglycine = compound: COC(=O)CNC(=O)C(=O)OC [Dimethyloxalylglycine]; settings: top dose 4000 µM; top dose inferred
Procedure: as §1

Doxorubicin = compound: COc1cccc2c1C(=O)c1c(O)c3c(c(O)c1C2=O)C[C@@](O)(C(=O)CO)C[C@@H]3O[C@H]1C[C@H](N)[C@H](O)[C@H](C)O1 [Doxorubicin]; settings: top dose 1.024 µM
Procedure: as §1

OSI-027 = compound: COc1cccc2cc(-c3nc([C@H]4CC[C@H](C(=O)O)CC4)n4ncnc(N)c34)[nH]c12 [OSI-027]; settings: top dose 20 µM
Procedure: as §1

Vismodegib = compound: CS(=O)(=O)c1ccc(C(=O)Nc2ccc(Cl)c(-c3ccccn3)c2)c(Cl)c1 [Vismodegib]; settings: top dose 10 µM; top dose inferred
Procedure: as §1

VX-11e = compound: Cc1cnc(Nc2ccc(F)cc2Cl)nc1-c1c[nH]c(C(=O)N[C@H](CO)c2cccc(Cl)c2)c1 [VX-11e]; settings: top dose 5.12 µM; top dose inferred
Procedure: as §1

TG101348 = compound: Cc1cnc(Nc2ccc(OCCN3CCCC3)cc2)nc1Nc1cccc(S(=O)(=O)NC(C)(C)C)c1 [TG101348]; settings: top dose 10.24 µM
Procedure: as §1

UNC1215 = compound: O=C(c1ccc(C(=O)N2CCC(N3CCCC3)CC2)c(Nc2ccccc2)c1)N1CCC(N2CCCC2)CC1 [UNC1215]; settings: top dose 1 µM; top dose inferred
Procedure: as §1

| Cell Line | AUC (BMX-IN-1 (QL-XII-61)) | IC50 (BMX-IN-1 (QL-XII-61)) | AUC (17-AAG) | IC50 (17-AAG) | AUC (CCT018159) | IC50 (CCT018159) | AUC (BIX02189) | IC50 (BIX02189) | AUC (Dimethyloxalylglycine) | IC50 (Dimethyloxalylglycine) | AUC (Doxorubicin) | IC50 (Doxorubicin) | AUC (OSI-027) | IC50 (OSI-027) | AUC (Vismodegib) | IC50 (Vismodegib) | AUC (VX-11e) | IC50 (VX-11e) | AUC (TG101348) | IC50 (TG101348) | AUC (UNC1215) | IC50 (UNC1215) |
| --- | --- | --- | --- | --- | --- | --- | --- | --- | --- | --- | --- | --- | --- | --- | --- | --- | --- | --- | --- | --- | --- | --- |
| LB771-HNC (head and neck, adherent) | 0.972 | > 10 µM | 0.899 | > 1 µM | 0.924 | > 10 µM | 0.966 | > 20 µM | 0.554 | 365 µM | 0.913 | > 1.02 µM | 0.769 | 9.49 µM | 0.982 | > 10 µM | 0.952 | > 5.12 µM | 0.934 | > 10.2 µM | 0.98 | > 1 µM |
| NCI-H1755 (lung adenocarcinoma, adherent) | 0.968 | > 10 µM | 0.538 | 0.0807 µM | 0.763 | 4.17 µM | 0.835 | 16.1 µM | 0.759 | 1610 µM | 0.823 | 0.735 µM | 0.853 | 19.6 µM | 0.983 | > 10 µM | 0.445 | 0.22 µM | 0.453 | 0.465 µM | 0.979 | > 1 µM |
| NB5 (neuroblastoma, adherent) | 0.936 | > 10 µM | 0.934 | > 1 µM | 0.984 | > 10 µM | 0.97 | > 20 µM | 0.916 | > 4000 µM | 0.759 | 0.362 µM | 0.644 | 3.14 µM | 0.975 | > 10 µM | 0.969 | > 5.12 µM | 0.901 | > 10.2 µM | 0.985 | > 1 µM |
| JJN-3 (haematopoietic neoplasm, suspension) | 0.928 | > 10 µM | 0.904 | 0.904 µM | 0.916 | > 10 µM | 0.959 | > 20 µM | 0.289 | 72.5 µM | 0.814 | 0.436 µM | 0.209 | 0.216 µM | 0.942 | > 10 µM | 0.938 | > 5.12 µM | 0.625 | 1.32 µM | 0.991 | > 1 µM |
| NCI-H1792 (lung adenocarcinoma, adherent) | 0.988 | > 10 µM | 0.552 | 0.0854 µM | 0.861 | 7.18 µM | 0.962 | > 20 µM | 0.674 | 725 µM | 0.797 | 0.429 µM | 0.868 | 15.3 µM | 0.981 | > 10 µM | 0.826 | 2.7 µM | 0.863 | 7.44 µM | 0.989 | > 1 µM |
| VCaP (prostate, adherent) | 0.986 | > 10 µM | 0.943 | > 1 µM | 0.986 | > 10 µM | 0.979 | > 20 µM | 0.875 | > 4000 µM | 0.682 | 0.211 µM | 0.543 | 1.64 µM | 0.987 | > 10 µM | 0.987 | > 5.12 µM | 0.637 | 1.56 µM | 0.985 | > 1 µM |
| CGTH-W-1 (thyroid, adherent) | 0.971 | > 10 µM | 0.315 | 0.0191 µM | 0.834 | 6.48 µM | 0.898 | > 20 µM | 0.603 | 479 µM | 0.506 | 0.0665 µM | 0.795 | 9.25 µM | 0.966 | > 10 µM | 0.986 | > 5.12 µM | 0.688 | 2.14 µM | 0.966 | > 1 µM |
| OCUB-M (breast, adherent) | 0.75 | 2.89 µM | 0.959 | > 1 µM | 0.837 | 5.44 µM | 0.968 | > 20 µM | 0.965 | > 4000 µM | 0.215 | 0.0109 µM | 0.076 | < 0.0781 µM | 0.99 | > 10 µM | 0.949 | > 5.12 µM | 0.844 | 5.92 µM | 0.987 | > 1 µM |
| WIL2-NS (lymphoid neoplasm, suspension) | 0.853 | 5.67 µM | 0.908 | 0.935 µM | 0.962 | > 10 µM | 0.896 | 16.4 µM | 0.78 | 1330 µM | 0.296 | 0.0193 µM | 0.208 | 0.216 µM | 0.986 | > 10 µM | 0.887 | 3.89 µM | 0.635 | 1.39 µM | 0.985 | > 1 µM |
| H2795 (mesothelioma, adherent) | 0.958 | > 10 µM | 0.54 | 0.08 µM | 0.905 | > 10 µM | 0.864 | 17 µM | 0.753 | 1320 µM | 0.822 | 0.589 µM | – | – | 0.913 | > 10 µM | 0.774 | 1.98 µM | 0.642 | 1.57 µM | 0.986 | > 1 µM |
| NB6 (neuroblastoma, adherent) | 0.892 | > 10 µM | 0.956 | > 1 µM | 0.96 | > 10 µM | 0.895 | > 20 µM | 0.707 | 1110 µM | 0.848 | > 1.02 µM | 0.641 | 3.37 µM | 0.984 | > 10 µM | 0.982 | > 5.12 µM | 0.875 | > 10.2 µM | – | – |
| OS-RC-2 (kidney, adherent) | 0.975 | > 10 µM | 0.691 | 0.275 µM | 0.966 | > 10 µM | 0.912 | > 20 µM | 0.706 | 1260 µM | 0.621 | 0.16 µM | 0.642 | 3.7 µM | 0.938 | > 10 µM | – | – | 0.808 | 8.56 µM | 0.908 | > 1 µM |
